Values of other authors in PMC3207004 (Clinical cancer research : an official journal of the …, 2011).

Details: canine model; reports, no reference given; cited from earlier work

## CC1(C)CC(=O)c2c(C(F)(F)F)nn(-c3ccc(C(N)=O)c(N[C@H]4CC[C@H](OC(=O)CN)CC4)c3)c2C1 [PF-04929113]
  Retinal damage in animal studies: potential of PF-04929113 to induce irreversible retinal damage
